# Results taken from PubChem BioAssay AID488969 (Vanderbilt High Throughput Screening Facility, 2010).
# Over roughly 110,000 compounds, “z-score” has its median near -0.1; the highest 2% begin near 2. The list shows a part of the results. The source made the active and inactive calls.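 How the source made its calls: active means z-score in the third read window above 3 or below -3; inactive means the rest.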
# Target: Metabotropic glutamate receptor 8 (Rattus norvegicus) (UniProt P70579)
# Experiment: mGluR8 Gi/Go-coupled signaling modulation – cell-based, rat, thallium flux, HTS, primary screen (AID 488969)
# Conditions: HEK293 rat mGluR8, GIRK (G protein-gated inwardly rectifying potassium channel) thallium flux, FluoZin2; at 10 µM; stronger effect = higher value; submaximal glutamate (EC20) added with thallium
# Sequence of UniProt P70579 (P70579 whole entry, looked up): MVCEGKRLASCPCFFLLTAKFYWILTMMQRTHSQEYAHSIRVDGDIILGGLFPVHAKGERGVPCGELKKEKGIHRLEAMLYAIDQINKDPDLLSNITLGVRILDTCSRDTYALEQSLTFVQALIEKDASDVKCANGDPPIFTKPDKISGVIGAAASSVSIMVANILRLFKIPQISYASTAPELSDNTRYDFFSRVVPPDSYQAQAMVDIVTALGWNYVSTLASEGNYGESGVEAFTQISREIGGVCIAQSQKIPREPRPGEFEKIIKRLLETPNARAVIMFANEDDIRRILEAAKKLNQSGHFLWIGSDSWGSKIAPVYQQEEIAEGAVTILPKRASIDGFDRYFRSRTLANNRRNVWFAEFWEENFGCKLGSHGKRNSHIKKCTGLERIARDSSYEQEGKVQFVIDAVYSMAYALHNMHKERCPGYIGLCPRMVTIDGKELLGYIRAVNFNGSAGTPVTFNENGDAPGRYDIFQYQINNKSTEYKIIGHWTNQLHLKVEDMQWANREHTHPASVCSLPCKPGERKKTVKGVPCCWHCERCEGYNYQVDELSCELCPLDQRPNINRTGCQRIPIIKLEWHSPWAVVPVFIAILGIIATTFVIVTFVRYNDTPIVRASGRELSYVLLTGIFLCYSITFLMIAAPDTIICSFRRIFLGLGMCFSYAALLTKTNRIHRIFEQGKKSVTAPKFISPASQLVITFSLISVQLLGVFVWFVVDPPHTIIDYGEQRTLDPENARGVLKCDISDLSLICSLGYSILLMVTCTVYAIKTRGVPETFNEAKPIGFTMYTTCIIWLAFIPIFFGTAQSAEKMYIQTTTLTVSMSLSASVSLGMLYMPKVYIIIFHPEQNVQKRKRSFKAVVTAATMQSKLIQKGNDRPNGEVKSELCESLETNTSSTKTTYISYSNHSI
row,Compound,z-score
1,O=C(NCc1ccc(F)cc1)c1cnn2ccccc12,-0.256
2,O=C(NCc1cccnc1)/C(=C\c1ccc(-c2ccc(Br)cc2)o1)S(=O)(=O)c1ccccc1,-0.233
3,Cc1csc(NC(=O)c2ccoc2C)n1,1.57
4,COc1ccccc1N(CC(=O)Nc1ccccc1C(=O)NC(C)C)S(C)(=O)=O,-0.955
5,CCN(c1ccccc1)S(=O)(=O)c1cc(C(=O)O)ccc1C,-1.39
6,CCc1sc(C(=O)NC)cc1Br,0.0282
7,c1csc(-c2nnc(Cc3cccc4ccccc34)o2)c1,-0.022
8,Cc1ccc(C)c(NC(=S)N=Nc2c(O)n(C)c3ccc(S(=O)(=O)N4CCOCC4)cc23)c1,active: 4.13
9,Cc1ccc(C)c(N2CCN(C(=O)C3CCN(c4nnc(N5CCCC5=O)s4)CC3)CC2)c1,-0.306
10,Cc1cccc(NC(=O)C2C(C(=O)O)C3C=CC2C32CC2)c1C (centres undefined),-0.389
11,O=C1c2ccccc2C(=O)N1CC1c2ccccc2CCN1C(=O)C1CCCCC1 (centres undefined),-0.696
12,O=C(c1ccccc1)N1CCN(C(=S)NCCc2ccccc2)CC1,-0.236
13,COC(=O)c1ccc(Cl)c(NC(=O)CN2CCN(C)CC2)c1,active: 4.17
14,O=C(CSc1nc2ccccc2c(=O)n1-c1ccc(F)cc1)Nc1ccc(N2CCOCC2)cc1,-0.000577
15,O=[N+]([O-])c1cc(-c2nnc(Nc3ccccc3)c3ccccc23)ccc1N1CCOCC1,-0.434
16,COCCCN(C(=S)Nc1cc(C)cc(C)c1)C(C)c1ccncc1 (centres undefined),0.0403
17,O=C(Nc1ccccc1)N(Cc1cccnc1)Cc1ccco1,-0.311
18,CCn1c(SC)nc(O)c(C(c2ccc(OC)c(O)c2)c2c(O)nc(SC)n(CC)c2=O)c1=O,0.358
19,CCC1(C)Cc2ccccc2-c2nc(NCCO)n(-c3ccc(C)cc3)c(=O)c21 (centres undefined),-0.864
20,O=C(CN1CCN(c2ccccn2)CC1)N1c2ccccc2Sc2ccc(C(F)(F)F)cc21,-0.136
21,NS(=O)(=O)c1ccc(CCNC(=O)C(=O)c2c[nH]c3ccccc23)cc1,-0.3
22,CS(=O)(=O)Nc1ccc(C(=O)NCCC2=CCCCC2)cc1,1.28

row,Compound,z-score
1,Cn1c(=O)c2c(SC3CCCC3)nc(CC(C)(C)C)nc2n(C)c1=O,-1.66
2,Cc1cccc(C)c1OCc1nnc(SCC(=O)Nc2ccccc2F)o1,0.69
3,C#CCN1C(=O)C(O)(CC(=O)c2cc(OC)ccc2OC)c2ccccc21 (centres undefined),0.241
4,COc1ccc(Cc2c(N)nc(N)nc2N)cc1,-0.264
5,CCOC(=O)Cc1c(C)nc2c(C#N)c[nH]n2c1=O,-0.0481
6,COCCCn1c(Cc2csc(Nc3ccc(F)cc3)n2)nnc1SCC(N)=O,-0.304
7,Cc1cccc(CSc2nc3sc(C)c(C)c3c(=O)n2Cc2ccco2)c1,0.131
8,CCOc1ccc(-n2c(SCc3cc(=O)oc4cc(C)ccc34)nnc2-c2cccnc2)cc1,-0.153
9,CCS(=O)(=O)N1Cc2ccccc2CC1C(=O)Nc1nc2ccccc2s1 (centres undefined),1.5
10,CC(=O)Nc1ccc(NC(=O)C2CCCN(c3ncccn3)C2)cc1 (centres undefined),-1.02
11,CCCOc1ccc(C(=O)O/N=C(\CC)c2ccc(C)cc2)cc1,-0.321
12,COC(=O)c1ccc(/C=N/Nc2nc(-c3ccc(C)cc3)cs2)cc1,-0.105
13,COc1c(C)cc(Br)cc1C(=O)Nc1cccc(-c2nc3ncccc3o2)c1,-0.243
14,CCC(OC(=O)CC1Sc2ccccc2NC1=O)C(=O)NCC1CCCO1 (centres undefined),-0.994
15,COc1ccc(C2CC(=O)c3sc(N)nc3C2)cc1 (centres undefined),-0.151
16,CC(C)(C)n1nnnc1C(c1cccs1)N(Cc1ccccc1)Cc1ccco1 (centres undefined),-1.24
17,O=C(CSc1nc2ccccc2c(=O)n1Cc1ccc(Cl)cc1)NCc1cccs1,1.32
18,CC(O)Cn1ccccc1=N (centres undefined),0.218
19,Cc1nc2nc(-c3cccnc3)[nH]n2c(=O)c1Cc1ccccc1,-0.434
20,CCNc1nc(NCC)nc(ON=C(C)C)n1,0.138
21,Cc1ccc(-c2nn(CC(N)=O)c(=O)c3ccccc23)cc1S(=O)(=O)N(C)C,-0.319
22,CN(C)C(=O)C(=O)c1c(-c2ccccc2)cc2ccccn12,-0.294

row,Compound,z-score
1,COc1cccc(N2CCN(C(=O)c3ccc4nc(N5CCCCC5)sc4c3)CC2)c1,-1.14
2,COc1ccc(CNC(=O)CCn2c(=O)oc3ccccc32)cc1,-0.258
3,COc1ccc(C2C(C(=O)OCC(=O)Nc3ccc(C)cc3)CCC(=O)N2c2ccc(OC)cc2)cc1 (centres undefined),-0.174
4,COc1ccc(C2C3=C(CC(C)(C)CC3=O)Nc3c2c(=O)[nH]c(=O)n3Cc2ccccc2)cc1 (centres undefined),0.962
5,O=C(/C=C/c1ccc(Br)cc1)c1ccc(NC2=NCCCS2)cc1,0.158
6,CCN(CC)CCNC(=O)C1c2cc(OC)c(OC)cc2C(=O)N2CCc3ccccc3C12 (centres undefined),0.134
7,CC(C)(C)n1nnnc1C(c1cccnc1)N1CCN(c2cccc(C(F)(F)F)c2)CC1 (centres undefined),0.0219
8,O=C(NCCCN1CCN(c2ccccc2)CC1)Nc1ccccc1C(F)(F)F,-0.506
9,Cc1ccccc1NC(=O)c1ccccc1NC(=O)c1ccco1,-0.398
10,CCN1CCN(CC(=O)Nc2ccc3c(c2)OCO3)C(=O)C1=O,-0.147
11,Cc1nc(OCc2ccccc2)c2sc3nc4c(cc3c2n1)COC(C)(C)C4,-0.478
12,CCOC(=O)C1=NNC2(c3ccc(C)cc3)C(=O)N(c3ccc(Cl)cc3)C(=O)C12 (centres undefined),-0.0348
13,N/C(=N\OC(=O)c1cccc2ccccc12)c1cccc([N+](=O)[O-])c1,-0.385
14,COC(=O)C1C(=O)c2c([nH]c(C(=O)OCCSC)c2C)CC1C (centres undefined),-0.462
15,CN(C)C(=S)Nn1c(-c2ccccc2)nc2ccccc2c1=O,-0.411
16,CCOc1ccccc1N1CC(O)=C(c2nc3ccccc3s2)C1=N,-0.959
17,Cc1ccc(N2C(=O)c3ccc(C(=O)O)cc3C2=O)c(C)c1,-0.0255
18,O=C(Cc1ccccc1)Nc1nnc(-c2cccs2)s1,0.154
19,O=Nc1c(O)n(Cc2ccc(Cl)cc2)c2ccccc12,-0.434
20,COc1ccccc1OCC(=O)OCC(=O)NCCN1C(=O)CSC1=O,0.0192
21,CN1CCN(C(c2cccnc2)c2ccc3cccnc3c2O)CC1 (centres undefined),-0.253
22,CN1/C(=C\C(=O)c2oc3ccccc3c2N)C(C)(C)c2ccccc21,-0.447

row,Compound,z-score
1,Cc1ncsc1C(=O)N1N=C2/C(=C/c3ccccc3)CCCC2C1c1ccccc1 (centres undefined),-0.162
2,Cc1ccc(OCCOCCn2cnc3ccccc3c2=O)c([N+](=O)[O-])c1,-0.217
3,CN(C)c1ccc(/C=C/c2cc[n+](C)cc2)cc1,1.25
4,O=C(/C=C/c1ccc(Cl)cc1)NCCN1CCOCC1,0.246
5,O=C1c2nc3ccccn3c2C(=O)N1Cc1ccccc1,0.737
6,COc1ccc(NC(=O)/C(=C\c2cc(OC)c(OC)cc2[N+](=O)[O-])NC(=O)c2ccccc2)cc1,-0.398
7,Cn1ccs/c1=N\S(=O)(=O)c1ccc(Br)cc1,0.0436
8,Nc1nonc1C(=O)NCCNCc1c(OCc2ccccc2F)ccc2ccccc12,0.681
9,CC(C)c1ccc(-c2nnc(N)s2)cc1,-0.324
10,COc1ccc(N2CC(C)Cn3c2nc2c3c(=O)n(Cc3ccc(F)cc3)c(=O)n2C)c(OC)c1 (centres undefined),0.0317
11,COc1ccc(C2/C(=C(\O)c3cccc(OC)c3)C(=O)C(=O)N2c2ccccn2)cc1 (centres undefined),-0.28
12,O=C(C1CCCN(S(=O)(=O)c2cnc[nH]2)C1)N(CCc1ccccc1)Cc1ccccc1 (centres undefined),-0.416
13,CCCc1nc2oc3c(OCC)ncnc3c2c2c1COC(C)(C)C2,-0.236
14,N=c1sccn1CC(=O)Nc1ccccc1Oc1ccccc1,0.312
15,CCCOc1ccc(N2CC(C(=O)Nc3ccccc3OC)CC2=O)cc1 (centres undefined),-1.76
16,CSCCC(NC(=O)c1ccoc1C)C(=O)O (centres undefined),-0.0493
17,CCN1CCN(C(c2ccccn2)c2c(NC(=O)c3ccccc3)sc(C)c2C)CC1 (centres undefined),-0.436
18,Nc1nc2ccccc2n1CCN1CCCC1,-0.064
19,C=CCC1(NC(C)c2ccccc2)CCCCC1 (centres undefined),1.5
20,C/C(=N\NC(=O)CNC(=O)C(c1ccccc1)c1ccccc1)c1ccc(C(C)(C)C)cc1,-0.148
21,CCN1CCN(Cc2ccc(OCc3ccccc3)cc2)CC1,1.12
22,C=CCn1c2ccccc2c2nnc(SCC(=O)Nc3cc(C)on3)nc21,-0.3

row,Compound,z-score
1,C=C(C)[C@H]1CC=C(C)/C(=N/NC(=O)CNc2ccccc2OC)C1,0.284
2,CNC(=O)Cc1csc2ccc(Cl)cc12,0.0531
3,c1csc(C(c2nnnn2C2CCCC2)N2CCCC3(CCCCC3)C2)c1 (centres undefined),-0.124
4,Cc1cc(C)cc(NS(=O)(=O)c2ccc(NC(=S)NC(=O)c3cccs3)cc2)c1,0.901
5,Cc1ccc(C(=O)NC(=S)Nc2ccc3[nH]c(=O)[nH]c3c2)cc1,0.014
6,CN(CCCCCCCCC(=O)/C=N/O)Cc1ccccc1,1.45
7,COc1ccccc1N(C)S(=O)(=O)c1ccc(C(=O)NC2=NCCS2)cc1,-0.404
8,O=C(/C=C/c1ccoc1)c1ccccc1O,-0.0767
9,COc1ccccc1-n1c(SCc2cc(=O)oc3cc(O)ccc23)nc2ccccc2c1=O,-0.26
10,CC(C)=CCC(C)(C)CNC(=O)NC1CCCCC1,1.47
11,O=C(COC(=O)CCc1nc2ccccc2s1)Nc1ccc(Cl)cn1,-0.179
12,CC(C)Sc1nc(N)nc(-c2cccs2)c1C#N,-1.07
13,COC(=O)c1cccc(Oc2nc(N3CCOCC3)nc(N3CCOCC3)n2)c1,-0.541
14,O=c1c(-c2nnc(SCc3ccc(Cl)c(Cl)c3)o2)cccn1Cc1ccccc1,-0.239
15,CCc1ccc(-c2cc(C(F)(F)F)n3nc(C(=O)Nc4c(C)nn(Cc5ccccc5Cl)c4C)cc3n2)s1,1.14
16,O=c1cc(-c2ccccc2)nc(N2CCN(Cc3ccc4c(c3)OCO4)CC2)[nH]1,-0.255
17,COc1ccccc1C(=O)Nc1ccccn1,0.302
18,CCCN(CCC)CCNC(=O)c1cc2c(=O)n(C)c3ccccc3c2n1C,1.86
19,Cc1cccc(CCNC(=O)CCc2c(C)nc3ncnn3c2C)c1,0.199
20,CCCCCCCCn1cnc2c(N)c(C)c(C)cc21,-0.287
21,COc1ccc(NC(=O)NC23CC4(C)CC(C)(CC(C)(C4)C2)C3)cc1OC,-0.068
